In all, about 360,000 compounds went through this assay and about 7,500 (2.1%) were called active. Another 20% or so got no clear call; they are omitted. Calls follow the shape of the dose curve; as a rule, active = well fitted inhibition curve with a large enough effect; inconclusive = small, poorly fitted or top-dose-only effect, or effect the other way; inactive = flat fitted curve, though single readings scatter. The entries are a selection whose mix differs from that of the whole data set. Square brackets hold non-standard residues; d marks the D form. Peptide text beside a SMILES is read from it. * marks the point of attachment. ξ: configuration not given here. Boc = CC(C)(C)OC(=O)*; ξP = O=C(O)C1CCCN1; Sar = CNCC(=O)O
test: Nrf2 qHTS screen for inhibitors; settings: A549 ARE-Fluc reporter, luciferase luminescence, 18-24 h; series mostly up to 46 µM; activity change, negative = inhibition: at the top concentration; also: nearly all actives have a fitted effect of over 60% in size
Procedure, shortened: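 Reporter: ARE-Fluc in A549. Exposure: 18-24 h, 37 °C, 5% CO2, 5% FBS OPTI-MEM. Readouts: fluorescent cytotoxicity (CellTiter-Fluor), then luminescent Nrf2 signal after BugLite.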
% is scaled to controls: 0 for no effect and ±100 for the full control effect; potency is read from the fitted curve at half-maximal effect.

Activity change, negative = inhibition, inactive:
CCOC(=O)CN(C)C(=O)C1CCCN1C(=O)OC(C)(C)C (configuration not stated) (Boc-[ξP]-[Sar]-OEt) 14.2%
COc1ccccc1CNC(=O)c1nn(-c2ccc(C)cc2)c(=O)c2c1c1ccccc1n2C 7.01%
O=C(Nc1nnc(S(=O)(=O)N2CCCC2)s1)c1ccccc1Cl 12.9%
CCOc1cc(C2CC(=O)N3CN(C4CCCCC4)CSC3=C2C#N)ccc1O (configuration not stated) 7.06%
Cc1cc(C)cc(NC(=O)CCCn2nc(C)c3c(C)n(-c4ccccc4)nc3c2=O)c1 -1.9%
CCCCNc1nc2c(c(=O)n(Cc3ccccc3)c(=O)n2C)n1C -18%
O=C1O[C@@H]([C@H](O)CO)C(O)=C1O 1.41%
CC(C)(C)[C@H]1C=C(C(=O)NCc2ccccc2)O[C@@H](OCc2ccc(CO)cc2)C1 -2.57%
O=C(O)CSc1cccc2cccnc12 3.62%
Cc1ccccc1OCCn1c(CCNC(=O)C2CCCCC2)nc2ccccc21 3.98%
Nc1nn(-c2ccccc2)nc1C(=O)OCc1ccccc1 16.8%
COc1ccc2c(c1)[C@@H]1[C@H](CO2)[C@H](c2ccccc2)[C@]2(C)C(=O)Nc3ccc(C)cc3C(=O)N12 1.75%
CCC1CC=CC2C1C(=O)N(Cc1ccccc1)C2c1ccc(C(F)(F)F)cc1 (configuration not stated) -12.2%
Cc1ccc(OCC(=O)Nc2nnc(S(=O)(=O)N3CCCCCC3)s2)cc1 -6.83%
CCOc1ccccc1CNC(=O)CCCn1ccc2cc(S(=O)(=O)N3CCCC3)ccc21 1.06%
COc1cccc(C(=O)Nc2nnc(S(=O)(=O)N3CCCC3)s2)c1 16.2%
Cc1ccc(NS(=O)(=O)c2ccc3c(c2)NC(=O)CO3)cc1C -17.4%
CC1CCCCN1CCCNC(=O)CN1C(=O)c2cccnc2Oc2ccccc21 (configuration not stated) 26%
O=C(O)C1=C[C@H](c2coc3ccccc3c2=O)C[C@H](OCCCCO)O1 4.7%
CCCCN(CC)CCNC(=O)c1cc2c(=O)n(CC)c3ccccc3c2s1 6.34%
Cc1nc(SCCOc2ccccc2F)[nH]c(=O)c1Cc1ccccc1 -5.12%
O=C(CCCN1C(=O)/C(=C/c2cccs2)SC1=S)Nc1ccccn1 21.2%
CCOC(=O)c1c(CN2CCOCC2)n(C)c2cc(Br)c(O)c(CN(C)C)c12 11.7%

Potency, active:
COCCn1c(=NC(=O)c2ccc3c(c2)OCCO3)sc2cc(S(N)(=O)=O)ccc21 13 µM
CCOC(=O)c1nc(Nc2ccccc2CC)c2ccccc2n1 23.1 µM
O=C(CSc1nc(-c2ccc(F)cc2)[nH]c1-c1ccc(F)cc1)Nc1ccc2c(c1)OCO2 16.4 µM
O=C(c1ccco1)N(Cc1ccc(Cl)cc1)C1CCS(=O)(=O)C1 (configuration not stated) 25.9 µM

— PubChem BioAssay AID504444 (National Center for Advancing Translational Sciences (NCATS), 2011)
